Test results as given in PMC4336329 (PLoS ONE, 2015).
Screen size: about 310,000 compounds; about 14,000 (4.5%) showed an effect of 50% or more. Effects have a minus sign here. This is one part of the list.

These molecules were tested against human ether-à-go-go-related gene (hERG) potassium channel (human, UniProt Q12809) (assay: primary screen, population patch clamp on CHO cells stably expressing hERG).
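Also: peak tail current of the secondary pulse compared with the same well before compound.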

Chain of human ether-à-go-go-related gene (hERG) potassium channel (Q12809 whole entry, looked up): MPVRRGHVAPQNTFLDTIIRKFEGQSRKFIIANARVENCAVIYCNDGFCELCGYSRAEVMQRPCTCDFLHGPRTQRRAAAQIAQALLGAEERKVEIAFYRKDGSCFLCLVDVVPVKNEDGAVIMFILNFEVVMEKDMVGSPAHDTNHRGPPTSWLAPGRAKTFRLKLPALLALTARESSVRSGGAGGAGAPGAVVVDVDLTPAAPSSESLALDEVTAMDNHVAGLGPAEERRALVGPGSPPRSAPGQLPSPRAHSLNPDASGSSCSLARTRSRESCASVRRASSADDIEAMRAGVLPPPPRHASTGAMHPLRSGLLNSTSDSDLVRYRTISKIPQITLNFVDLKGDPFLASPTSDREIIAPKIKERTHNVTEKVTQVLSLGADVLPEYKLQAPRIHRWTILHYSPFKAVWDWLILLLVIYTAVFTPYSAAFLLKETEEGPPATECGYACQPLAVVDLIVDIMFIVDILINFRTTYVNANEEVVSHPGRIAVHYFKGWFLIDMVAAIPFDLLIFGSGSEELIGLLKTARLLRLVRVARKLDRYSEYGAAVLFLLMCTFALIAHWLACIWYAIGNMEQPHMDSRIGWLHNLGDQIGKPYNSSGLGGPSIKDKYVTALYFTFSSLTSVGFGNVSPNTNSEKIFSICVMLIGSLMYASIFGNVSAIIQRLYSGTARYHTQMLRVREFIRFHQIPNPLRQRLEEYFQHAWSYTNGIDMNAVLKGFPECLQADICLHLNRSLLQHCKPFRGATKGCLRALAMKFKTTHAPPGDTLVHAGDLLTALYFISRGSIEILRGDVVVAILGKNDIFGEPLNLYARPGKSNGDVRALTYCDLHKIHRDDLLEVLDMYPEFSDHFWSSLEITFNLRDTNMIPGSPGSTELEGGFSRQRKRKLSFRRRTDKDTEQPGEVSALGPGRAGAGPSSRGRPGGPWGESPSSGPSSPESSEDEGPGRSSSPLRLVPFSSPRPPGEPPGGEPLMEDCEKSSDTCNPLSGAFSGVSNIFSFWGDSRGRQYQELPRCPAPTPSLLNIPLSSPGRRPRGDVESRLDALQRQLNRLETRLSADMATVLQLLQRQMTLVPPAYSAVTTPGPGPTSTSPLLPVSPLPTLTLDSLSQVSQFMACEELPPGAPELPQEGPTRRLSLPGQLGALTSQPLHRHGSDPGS

Going from `CCCn1cnc2cc(NCc3ccccn3)ccc21` to `Cn1c(SCCCC(=O)c2ccccc2)nnc1-c1ccncc1`, the “hERG current change (%, negative = inhibition) at 10uM” value falls from -18.8% to -42.9%.

First: Cc1ccc(/C=N/N2CCN(Cc3ccc(C)cc3)CC2)cc1
Second: O=C(Cc1ccc(Br)cc1)N1CCc2ccccc2C1
The “hERG current change (%, negative = inhibition) at 10uM” value of the first is lower: 1.35% for the first, 18.9% for the second.

Going from `Cc1c(C)[n+](=O)c(-c2ccco2)c(C)n1[O-]` to `CC(C)=C1C2CCC1C1C(=O)N(NC(=O)c3ccco3)C(=O)C21` (stereo not drawn), the “hERG current change (%, negative = inhibition) at 10uM” value falls from 12.2% to -4.72%.

First: COc1ccc(-n2c(Cc3cccn3C)nnc2SCC(=O)NCc2ccco2)cc1
Second: Cc1ccc(-c2nnc(SCC(=O)N3c4ccccc4NC(=O)C3(C)C)n2N)cc1
The “hERG current change (%, negative = inhibition) at 10uM” value of the first is higher: -12.9% for the first, -13.4% for the second.

Compared with `Cc1ccc(-n2nc3c(c2NC(=O)c2c(-c4ccccc4Cl)noc2C)CSC3)cc1`, `COc1ccccc1-c1c(C)nn2c(N)c(-c3ccccc3)cnc12` is lower in “hERG current change (%, negative = inhibition) at 10uM” value: 0.363% for the first, -26.8% for the second.

Going from `CCOC(=O)[C@@H]1[C@H]2COc3cc(OC)ccc3[C@H]2N2C(=O)N(c3cccc(Cl)c3)C(=O)[C@@]12C` to `Cc1nc(C(=O)Nc2cccc(Cl)c2)nn1-c1cc(OC(C)C)c(Cl)cc1Cl`, the “hERG current change (%, negative = inhibition) at 10uM” value falls from 2.93% to -5.08%.

Going from `O=C(CSc1nc2ccccc2o1)c1ccc2c(c1)OCCO2` to `CC1=N/C(=C\c2ccc3c(c2)OCO3)C(=O)N1c1ccc(C(=O)O)cc1`, the “hERG current change (%, negative = inhibition) at 10uM” value rises from -1.98% to 7.19%.

Going from `Cc1sc2ncnc(NCCCN3CCCC3=O)c2c1C` to `Cc1c(C(=O)NCCCN2CCCC2=O)oc2ccc(S(=O)(=O)N3CCOCC3)cc12`, the “hERG current change (%, negative = inhibition) at 10uM” value falls from 3.27% to -3.55%.

Compared with `CCOc1cc(/C=N/O)cc(Cl)c1OC`, `COc1ccc(/C=C/C(=O)C(C)(C)C)cc1OC` is lower in “hERG current change (%, negative = inhibition) at 10uM” value: 0.707% for the first, -4.28% for the second.

First: COc1ccc(NC(=S)NC(NC(=O)CCl)C(Cl)(Cl)Cl)c([N+](=O)[O-])c1 (stereo not drawn)
Second: CCC(=O)Nc1sc(C(=O)Nc2ccccc2)c(C)c1C(=O)OC
The “hERG current change (%, negative = inhibition) at 10uM” value of the first is higher: 17.2% for the first, -2.99% for the second.

Going from `CCCCN(C(=O)c1ccccc1Br)C1CCS(=O)(=O)C1` (stereo not drawn) to `CCN(CC)CCCNC(=O)c1cc(Sc2nnc(C)s2)nc2ccccc12`, the “hERG current change (%, negative = inhibition) at 10uM” value falls from -3.49% to -40.4%.

Going from `CC(C)(C)SCCNS(=O)(=O)c1ccc(F)cc1` to `Cc1ccc(S(=O)(=O)NC(CCc2ccccc2)CC(=O)C(C)(C)C)cc1` (stereo not drawn), the “hERG current change (%, negative = inhibition) at 10uM” value falls from 6.24% to -0.463%.

Going from `Cn1nnnc1SCC(=O)NC(=O)Cc1ccccc1` to `COC(=O)[C@H](CCSC)NC(=O)Cn1ccc(NC(=O)OCc2ccccc2)nc1=O`, the “hERG current change (%, negative = inhibition) at 10uM” value rises from 1.02% to 14.6%.

First: CN1CCN(c2ccc([N+](=O)[O-])cc2C(=O)Nc2ccccc2)CC1
Second: Cn1c(CN2CCN(C(=O)COc3ccccc3)CC2)nc2cc([N+](=O)[O-])ccc21
The “hERG current change (%, negative = inhibition) at 10uM” value of the first is lower: -71.1% for the first, -55.2% for the second.

Going from `Oc1ccc(C[C@@H]2CNCCN2CC2CCCCC2)cc1` to `O=C(Cn1nnc(-c2ccncc2)n1)N(C1CCCCC1)C1CCCCC1`, the “hERG current change (%, negative = inhibition) at 10uM” value falls from -2.48% to -21.3%.

First: O=C(/C=C/c1ccco1)NCc1ccc(F)cc1
Second: COCCN(C(=O)c1ccco1)c1nc(-c2ccccc2)cs1
The “hERG current change (%, negative = inhibition) at 10uM” value of the first is higher: 9.33% for the first, 4.36% for the second.

Compared with `COc1ccc(CN(C)C(=O)C(Cc2ccccc2)NC(=O)c2ccccc2)c(OC)c1` (stereo not drawn), `O=C(Nc1cccc(C(=O)O)c1)/C(=C/c1ccccc1)NC(=O)c1cccc(Br)c1` is higher in “hERG current change (%, negative = inhibition) at 10uM” value: -13.5% for the first, 4.3% for the second.

First: Cn1nccc1/C=C(/C#N)S(=O)(=O)c1ccccc1
Second: N=c1oc2ccccc2cc1C(=O)Nc1ccccc1
The “hERG current change (%, negative = inhibition) at 10uM” value of the first is higher: 8.05% for the first, 6.6% for the second.

Going from `CC1(C)Cc2nc3[nH]c(=S)[nH]c(=O)c3cc2CO1` to `CCC1(C)Cc2nc3[nH]c(=S)n(-c4ccc(C)cc4)c(=O)c3cc2CO1` (stereo not drawn), the “hERG current change (%, negative = inhibition) at 10uM” value falls from 9.05% to -2.97%.

Compared with `CCNC(=O)O/N=C(\C)c1sc(-c2ccc(Cl)cc2)nc1C`, `CCOc1ccc(NC(=O)Nc2nnc(CC)s2)cc1` is higher in “hERG current change (%, negative = inhibition) at 10uM” value: -23.9% for the first, 11.1% for the second.

First: CCOC(=O)c1c(N)sc(C(=O)N2CCCCCC2)c1C
Second: O=C(NCCN1CCCCC1)c1ccc(=O)oc1
The “hERG current change (%, negative = inhibition) at 10uM” value of the first is lower: 2.28% for the first, 2.97% for the second.

Compared with `C=CCOCCN1C(=O)C2C(c3ccccc3)C=CC(c3ccccc3)C2C1=O` (stereo not drawn), `O=C(CCl)N1c2ccccc2CCc2ccccc21` is higher in “hERG current change (%, negative = inhibition) at 10uM” value: 4.32% for the first, 8.65% for the second.

Going from `COc1ccc(NC(=O)C(OC(=O)c2cnccn2)c2ccccc2)cc1Cl` (stereo not drawn) to `COc1ccc(S(=O)(=O)Nc2ccc3c(c2)OCO3)cc1Cl`, the “hERG current change (%, negative = inhibition) at 10uM” value falls from 24.7% to -17.7%.

Going from `CCOc1cc(C2Nc3ccccc3NC3=C2C(=O)CC(C)(C)C3)ccc1O` (stereo not drawn) to `CC(=O)c1ccc(C(=O)Nc2sc3c(c2C(N)=O)CCN(Cc2ccccc2)C3)cc1.Cl`, the “hERG current change (%, negative = inhibition) at 10uM” value falls from 12.7% to -35.3%.

First: C=CCc1c(C)nc(C)nc1N/N=C/c1ccc(F)cc1
Second: COc1ccc(/C=N/NC(=O)c2ccc(N)cc2)cc1Cn1cc([N+](=O)[O-])cn1
The “hERG current change (%, negative = inhibition) at 10uM” value of the first is lower: -30.9% for the first, -7.62% for the second.

First: Cc1cc(-c2ccccc2)nc(N2CCN(c3ccccn3)CC2)n1
Second: Cc1ccc(N(C)S(=O)(=O)c2cccc(C(=O)Oc3ccc4c(C)cc(=O)oc4c3)c2)cc1
The “hERG current change (%, negative = inhibition) at 10uM” value of the first is lower: 1.11% for the first, 19.7% for the second.

Compared with `CCCCNCC#CCOc1cc(C)ccc1C(C)C.O=C(O)C(=O)O`, `Cc1ccc(NC(=O)[C@H](C)NC(=O)C2CCN(C(=O)[C@@H](N)CC(C)C)CC2)cc1.Cl` is lower in “hERG current change (%, negative = inhibition) at 10uM” value: 13.4% for the first, 7.29% for the second.

Compared with `CC(=O)c1cccc([N+](=O)[O-])c1`, `CCC(CC)C(=O)c1c[nH]c(C(=O)NCc2cccnc2)c1` is higher in “hERG current change (%, negative = inhibition) at 10uM” value: 17.7% for the first, 18.6% for the second.

With `OC1CNCc2cc3c(cc21)OCCO3` (stereo not drawn) the “hERG current change (%, negative = inhibition) at 10uM” value was -8.55%.
